# Data: the supplement of paper PMC8728848
# The list shows a part of the results.
# B1: B1567 (Bifidobacterium sp) (protein)
# chain: MKFTTAKKAVALTGAVAMLVSVAACGSDSGKSSQPAQDSDVKEITVWAWEPSLTQVAKDFEKETGIKVDLKNVGTNTKEYTQLDNAIEAGSGAPDVAQVEYYAVPQYAIKGNLLDITDKTSGYKDFYTPGPWASVQFAGKVYGLPMDSGPMAFFYNKEVFDKAGVDAEQIKTWDQYYDAAKKIHALGDNYYITSDTGDAGFFDSMTWLAGAKPFQTSSDGSEVTVNLTEDKGVKTFTDFWQKLLDEGLLDTKTAGWSEDWFKGMVDGTIASLFTGAWMPANLANSAADGAGKWRVTQMPTADGSTTNSENGGSSLAVLASTKKADAAYQFIEYANHGAGVATRVAGGAFPADKASLEKDSFKNATTVKNADGQDVDYFGGQKYNEVLAQAAENVSSGYQFLPFEVKARTIFGDYFGKSYTGDQKLSDGVAAWQKALQDYGKDQGFTVK
# Assays:
# Assay in all cases: glycan array binding signal (z-score within array); higher = stronger binding
# Details in all cases: glycan notation: IUPAC condensed, linker removed
# [1] = biological target: Neu5Ac(a2-3)Gal(b1-3)GlcNAc(b1-2)Man
# Outline: (§1)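 Glycan array binding is given as a within-array Z-score, which can be read as non-binding when negative. The arrays, 3228 of them, came from the Consortium for Functional Glycomics database and were retained only where the protein sequence was available. Z-scores were averaged across arrays of the same protein sequence at different concentrations or buffers and across linkers.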
# [2] = biological target: Neu5Ac(a2-3)Gal(b1-3)GlcNAc(b1-2)Man(a1-3)[GlcNAc(b1-4)][Neu5Ac(a2-3)Gal(b1-3)GlcNAc(b1-2)Man(a1-6)]Man(b1-4)GlcNAc(b1-4)GlcNAc
# Outline: as §1
# [3] = biological target: Neu5Ac(a2-3)Gal(b1-3)GlcNAc(b1-2)Man(a1-3)[Neu5Ac(a2-3)Gal(b1-3)GlcNAc(b1-2)Man(a1-6)]Man(b1-4)GlcNAc(b1-4)GlcNAc
# Outline: as §1
# [4] = biological target: Neu5Ac(a2-3)Gal(b1-3)GlcNAc(b1-2)[Neu5Ac(a2-3)Gal(b1-3)GlcNAc(b1-4)]Man(a1-6)[Neu5Ac(a2-3)Gal(b1-3)GlcNAc(b1-2)Man(a1-3)]Man(b1-4)GlcNAc(b1-4)GlcNAc
# Outline: as §1
# [5] = biological target: Neu5Ac(a2-3)Gal(b1-3)GlcNAc(b1-3)Gal(b1-3)GlcNAc
# Outline: as §1
# [6] = biological target: Neu5Ac(a2-3)Gal(b1-3)GlcNAc(b1-3)Gal(b1-4)GlcNAc
# Outline: as §1
# [7] = biological target: Neu5Ac(a2-3)Gal(b1-3)GlcNAc(b1-3)GalNAc
# Outline: as §1
# [8] = biological target: Neu5Ac(a2-3)Gal(b1-3)GlcNAc(b1-6)GalNAc
# Outline: as §1
# [9] = biological target: Neu5Ac(a2-3)Gal(b1-3)GlcNAc6S
# Outline: as §1
# [10] = biological target: Neu5Ac(a2-3)Gal(b1-3)[Fuc(a1-4)]GlcNAc
# Outline: as §1
# [11] = biological target: Neu5Ac(a2-3)Gal(b1-3)[Fuc(a1-4)]GlcNAc(b1-3)Gal(b1-3)[Fuc(a1-4)]GlcNAc
# Outline: as §1
# [12] = biological target: Neu5Ac(a2-3)Gal(b1-3)[Fuc(a1-4)]GlcNAc(b1-3)Gal(b1-4)[Fuc(a1-3)]GlcNAc
# Outline: as §1
# [13] = biological target: Neu5Ac(a2-3)Gal(b1-3)[GlcNAc(b1-6)]GalNAc
# Outline: as §1
# [14] = biological target: Neu5Ac(a2-3)Gal(b1-3)[Neu5Ac(a2-6)]GalNAc
# Outline: as §1
# [15] = biological target: Neu5Ac(a2-3)Gal(b1-3)[Neu5Ac(a2-6)]GlcNAc(b1-3)[Fuc(a1-3)[Gal(b1-4)]GlcNAc(b1-6)]Gal(b1-4)Glc
# Outline: as §1
# [16] = biological target: Neu5Ac(a2-3)Gal(b1-3)]Neu5Ac(a2-3)Gal(b1-4)]GlcNAc
# Outline: as §1
# [17] = biological target: Neu5Ac(a2-3)Gal(b1-4)Glc
# Outline: as §1
# [18] = biological target: Neu5Ac(a2-3)Gal(b1-4)GlcNAc
# Outline: as §1
# [19] = biological target: Neu5Ac(a2-3)Gal(b1-4)GlcNAc(b1-2)Man
# Outline: as §1
# [20] = biological target: Neu5Ac(a2-3)Gal(b1-4)GlcNAc(b1-2)Man(a1-3)[GlcNAc(b1-4)][Neu5Ac(a2-3)Gal(b1-4)GlcNAc(b1-2)Man(a1-6)]Man(b1-4)GlcNAc(b1-4)GlcNAc
# Outline: as §1
# [21] = biological target: Neu5Ac(a2-3)Gal(b1-4)GlcNAc(b1-2)Man(a1-3)[Neu5Ac(a2-3)Gal(b1-4)GlcNAc(b1-2)Man(a1-6)]Man(b1-4)GlcNAc(b1-4)GlcNAc
# Outline: as §1
# [22] = biological target: Neu5Ac(a2-3)Gal(b1-4)GlcNAc(b1-2)Man(a1-3)[Neu5Ac(a2-3)Gal(b1-4)GlcNAc(b1-2)Man(a1-6)]Man(b1-4)GlcNAc(b1-4)[Fuc(a1-6)]GlcNAc
# Outline: as §1
# [23] = biological target: Neu5Ac(a2-3)Gal(b1-4)GlcNAc(b1-2)Man(a1-3)[Neu5Ac(a2-6)Gal(b1-4)GlcNAc(b1-2)Man(a1-6)]Man(b1-4)GlcNAc(b1-4)GlcNAc
# Outline: as §1
# [24] = biological target: Neu5Ac(a2-3)Gal(b1-4)GlcNAc(b1-2)[Neu5Ac(a2-3)Gal(b1-4)GlcNAc(b1-4)]Man(a1-3)[GlcNAc(b1-4)][Neu5Ac(a2-3)Gal(b1-4)GlcNAc(b1-2)[Neu5Ac(a2-3)Gal(b1-4)GlcNAc(b1-6)]Man(a1-6)]Man(b1-4)GlcNAc(b1-4)GlcNAc
# Outline: as §1
# [25] = biological target: Neu5Ac(a2-3)Gal(b1-4)GlcNAc(b1-2)[Neu5Ac(a2-3)Gal(b1-4)GlcNAc(b1-4)]Man(a1-3)[GlcNAc(b1-4)][Neu5Ac(a2-3)Gal(b1-4)GlcNAc(b1-4)Man(a1-6)]Man(b1-4)GlcNAc(b1-4)GlcNAc
# Outline: as §1
# [26] = biological target: Neu5Ac(a2-3)Gal(b1-4)GlcNAc(b1-2)[Neu5Ac(a2-3)Gal(b1-4)GlcNAc(b1-6)]Man(a1-6)[Neu5Ac(a2-3)Gal(b1-4)GlcNAc(b1-2)Man(a1-3)][GlcNAc(b1-4)]Man(b1-4)GlcNAc(b1-4)GlcNAc
# Outline: as §1
# [27] = biological target: Neu5Ac(a2-3)Gal(b1-4)GlcNAc(b1-3)Gal
# Outline: as §1
# [28] = biological target: Neu5Ac(a2-3)Gal(b1-4)GlcNAc(b1-3)Gal(b1-3)GlcNAc
# Outline: as §1
# [29] = biological target: Neu5Ac(a2-3)Gal(b1-4)GlcNAc(b1-3)Gal(b1-4)GlcNAc
# Outline: as §1
# [30] = biological target: Neu5Ac(a2-3)Gal(b1-4)GlcNAc(b1-3)Gal(b1-4)GlcNAc(b1-2)Man(a1-3)[Neu5Ac(a2-3)Gal(b1-4)GlcNAc(b1-3)Gal(b1-4)GlcNAc(b1-2)Man(a1-6)]Man(b1-4)GlcNAc(b1-4)GlcNAc
# Outline: as §1
# [31] = biological target: Neu5Ac(a2-3)Gal(b1-4)GlcNAc(b1-3)Gal(b1-4)GlcNAc(b1-3)Gal(b1-4)GlcNAc
# Outline: as §1
# [32] = biological target: Neu5Ac(a2-3)Gal(b1-4)GlcNAc(b1-3)Gal(b1-4)GlcNAc(b1-3)Gal(b1-4)GlcNAc(b1-2)Man(a1-3)[Neu5Ac(a2-3)Gal(b1-4)GlcNAc(b1-3)Gal(b1-4)GlcNAc(b1-3)Gal(b1-4)GlcNAc(b1-2)Man(a1-6)]GalNAc
# Outline: as §1
# [33] = biological target: Neu5Ac(a2-3)Gal(b1-4)GlcNAc(b1-3)Gal(b1-4)GlcNAc(b1-3)GalNAc
# Outline: as §1
# [34] = biological target: Neu5Ac(a2-3)Gal(b1-4)GlcNAc(b1-3)Gal(b1-4)GlcNAc(b1-3)[Neu5Ac(a2-3)Gal(b1-4)GlcNAc(b1-3)Gal(b1-4)GlcNAc(b1-6)]GalNAc
# Outline: as §1
# [35] = biological target: Neu5Ac(a2-3)Gal(b1-4)GlcNAc(b1-3)Gal(b1-4)GlcNAc(b1-6)[Gal(b1-3)]GalNAc
# Outline: as §1
# [36] = biological target: Neu5Ac(a2-3)Gal(b1-4)GlcNAc(b1-3)Gal(b1-4)[Fuc(a1-3)]GlcNAc
# Outline: as §1
# [37] = biological target: Neu5Ac(a2-3)Gal(b1-4)GlcNAc(b1-3)GalNAc
# Outline: as §1
# [38] = biological target: Neu5Ac(a2-3)Gal(b1-4)GlcNAc(b1-3)[Neu5Ac(a2-3)Gal(b1-4)GlcNAc(b1-6)]GalNAc
# Outline: as §1
binder,measurement,setting,value
B1,glycan array binding signal (z-score),[1],-0.133
same,glycan array binding signal (z-score),[2],-0.019
same,glycan array binding signal (z-score),[3],-0.086
same,glycan array binding signal (z-score),[4],-0.072
same,glycan array binding signal (z-score),[5],-0.12
same,glycan array binding signal (z-score),[6],-0.029
same,glycan array binding signal (z-score),[7],-0.093
same,glycan array binding signal (z-score),[8],-0.05
same,glycan array binding signal (z-score),[9],-0.075
same,glycan array binding signal (z-score),[10],-0.109
same,glycan array binding signal (z-score),[11],-0.096
same,glycan array binding signal (z-score),[12],-0.046
same,glycan array binding signal (z-score),[13],-0.189
same,glycan array binding signal (z-score),[14],-0.122
same,glycan array binding signal (z-score),[15],-0.07
same,glycan array binding signal (z-score),[16],-0.078
same,glycan array binding signal (z-score),[17],-0.075
same,glycan array binding signal (z-score),[18],-0.097
same,glycan array binding signal (z-score),[19],0.005
same,glycan array binding signal (z-score),[20],-0.097
same,glycan array binding signal (z-score),[21],-0.149
same,glycan array binding signal (z-score),[22],-0.063
same,glycan array binding signal (z-score),[23],-0.092
same,glycan array binding signal (z-score),[24],-0.117
same,glycan array binding signal (z-score),[25],-0.119
same,glycan array binding signal (z-score),[26],-0.095
same,glycan array binding signal (z-score),[27],-0.127
same,glycan array binding signal (z-score),[28],-0.129
same,glycan array binding signal (z-score),[29],-0.037
same,glycan array binding signal (z-score),[30],-0.003
same,glycan array binding signal (z-score),[31],-0.128
same,glycan array binding signal (z-score),[32],0.089
same,glycan array binding signal (z-score),[33],-0.191
same,glycan array binding signal (z-score),[34],0.001
same,glycan array binding signal (z-score),[35],-0.13
same,glycan array binding signal (z-score),[36],-0.145
same,glycan array binding signal (z-score),[37],-0.027
same,glycan array binding signal (z-score),[38],-0.09
